# Article PMC4336329 (PLoS ONE, 2015)
# Screen size: about 310,000 compounds; about 14,000 (4.5%) showed an effect of 50% or more. Effects have a minus sign here. The list shows a part of the results.
# Biological target: human ether-à-go-go-related gene (hERG) potassium channel (human, UniProt Q12809)
# Assay: primary screen, population patch clamp on CHO cells stably expressing hERG
# 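Also: peak tail current of the secondary pulse compared with the same well before compound.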
# Sequence of human ether-à-go-go-related gene (hERG) potassium channel (Q12809 whole entry, looked up): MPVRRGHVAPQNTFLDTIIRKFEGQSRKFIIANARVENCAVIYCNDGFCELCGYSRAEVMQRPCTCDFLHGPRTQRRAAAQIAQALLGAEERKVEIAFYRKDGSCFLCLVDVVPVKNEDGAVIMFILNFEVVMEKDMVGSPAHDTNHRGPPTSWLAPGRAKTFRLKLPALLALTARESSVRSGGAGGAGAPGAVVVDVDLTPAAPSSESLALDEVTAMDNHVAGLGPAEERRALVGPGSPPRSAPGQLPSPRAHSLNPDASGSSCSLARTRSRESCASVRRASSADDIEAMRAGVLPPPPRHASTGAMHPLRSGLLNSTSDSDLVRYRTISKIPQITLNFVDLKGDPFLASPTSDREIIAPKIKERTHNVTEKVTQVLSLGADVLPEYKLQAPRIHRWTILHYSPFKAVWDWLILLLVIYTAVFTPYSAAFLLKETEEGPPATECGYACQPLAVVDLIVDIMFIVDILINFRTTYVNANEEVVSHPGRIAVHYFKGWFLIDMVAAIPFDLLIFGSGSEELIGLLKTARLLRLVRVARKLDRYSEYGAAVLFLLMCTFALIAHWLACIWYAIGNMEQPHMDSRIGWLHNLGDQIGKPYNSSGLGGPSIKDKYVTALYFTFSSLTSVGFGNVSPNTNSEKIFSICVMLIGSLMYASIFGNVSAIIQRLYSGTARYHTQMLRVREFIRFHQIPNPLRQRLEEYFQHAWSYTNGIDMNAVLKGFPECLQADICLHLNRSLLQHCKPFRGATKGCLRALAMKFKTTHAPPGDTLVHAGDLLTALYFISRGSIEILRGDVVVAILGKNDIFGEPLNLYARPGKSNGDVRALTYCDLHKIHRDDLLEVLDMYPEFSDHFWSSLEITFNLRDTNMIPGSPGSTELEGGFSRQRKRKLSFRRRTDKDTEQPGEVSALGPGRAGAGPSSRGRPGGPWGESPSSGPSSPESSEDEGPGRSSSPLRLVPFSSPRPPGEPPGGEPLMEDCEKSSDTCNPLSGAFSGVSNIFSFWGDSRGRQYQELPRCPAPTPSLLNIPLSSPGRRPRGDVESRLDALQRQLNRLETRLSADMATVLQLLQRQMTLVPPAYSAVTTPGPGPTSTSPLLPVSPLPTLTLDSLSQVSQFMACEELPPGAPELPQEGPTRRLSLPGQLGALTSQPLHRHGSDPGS
row,SMILES,"hERG current change (%, negative = inhibition) at 10uM"
1,Cc1cccc(C(=O)NNC(=O)CSc2nnc(C3CC3)n2C)c1,20.8%
2,O=C(O)CCC(=O)N1CCN(c2ncccn2)CC1,18.4%
3,CS(=O)(=O)N(Cc1ccccc1)c1ccc(C(=O)NCc2ccccc2)cc1,21.8%
4,COc1ccc(C2=NOC(c3nnc(-c4ccccc4)o3)C2)cc1 (stereo not drawn),-0.985%
5,Cc1cc(NC(=O)COC(=O)C2CCN(S(=O)(=O)c3ccc(Cl)cc3)CC2)no1,9.58%
6,Cc1ccc(S(=O)(=O)c2c(C)cc(C)[nH]c2=O)cc1,20.3%
7,COc1ccc(CNC(=O)c2cnc3scc(C)n3c2=O)cc1,-18.3%
8,COc1ccccc1NC(=S)N1CC(C)OC(C)C1 (stereo not drawn),19.5%
9,O=C(CSc1cccc[n+]1[O-])Nc1cc2c(cc1Cl)C(=O)c1ccccc1C2=O,1.62%
10,COc1ccc(C2(CNC(C)=O)CCCC2)cc1OC,8.51%
11,O=C(Nc1ccc(Cl)c(Cl)c1)Nc1cc(C(=O)NC2CC2)ccc1Cl,5.53%
12,COc1ccc(N/N=C(/N=Nc2nc(C)cc(=O)[nH]2)c2ccccc2)cc1,-1.23%
13,Cc1ccc(C(=O)C[n+]2ccccc2C)cc1[N+](=O)[O-].[Br-],-1.36%
14,O=C(CN1CCN(c2ccccc2)CC1)Nc1cccc(C(F)(F)F)c1,2%
15,CC(Sc1nc(N)cc(=O)[nH]1)C(=O)NCC(=O)Nc1ccc(F)c(F)c1F (stereo not drawn),-8.13%
16,O=C(NCN1CCN(CCO)CC1)c1cnccn1,7.29%
17,O=C1Nc2ccccc2Nc2ccccc21,14%
18,COc1cccc(NC(=O)Cc2csc(NC(=O)Nc3ccccc3OC)n2)c1,18.2%
19,CCOC(=O)c1ccc(NC(=S)NC(=O)c2cncc(Br)c2)cc1,21.8%
20,Cc1ccc2c(CC(=O)N3CCc4ccccc43)coc2c1,3.29%
21,Cc1ccc(C)c(NC(=S)NNC(=O)c2csc(C)c2C)c1,1.72%
22,CC(=O)c1ccc(NC(=O)Nc2ncn(Cc3cccc(C)c3)n2)cc1,0.723%
23,CC(=O)c1ccc(-c2ccccc2OC(F)(F)F)o1,-10.7%

row,SMILES,"hERG current change (%, negative = inhibition) at 10uM"
1,CC(=O)Nc1ccc(NC(=O)c2ccc(-n3c(C)ccc3C)cc2)cc1,-20.2%
2,CCON1C(=O)CN(C(=O)OC)C1c1ccc(Cl)cc1Cl (stereo not drawn),5.34%
3,CN(C)c1ccc(/C=N/NC(=O)CNC(=O)c2ccco2)cc1,17.9%
4,Br.N=c1n(CCN2CCOCC2)c2ccccc2n1CC(=O)c1ccc(Cl)c(Cl)c1,-73.2%
5,Nc1cccc(C(=O)O)c1,13.6%
6,CC(=O)Nc1ccc(S(=O)(=O)N[C@@H](C)C(=O)Nc2ccc(N3CCOCC3)cc2)cc1,15.1%
7,CC(C)(CO)Nc1nc(N2CCCC2)nc(N2CCCC2)n1,-13.8%
8,Cc1ccc(NC(=O)CSc2nnc(-c3cccs3)o2)cc1S(=O)(=O)N1CCCCC1,-19%
9,Cc1sc2nc(CN3CCCCC3)nc(Cl)c2c1C,-24.5%
10,COc1ccc2c(c1)-c1c(ssc1=S)C(C)(C)N2S(=O)(=O)c1ccc(C)cc1,2.55%
11,CCN(C(=O)COC(=O)c1ccccc1NCCO)c1cccc2ccccc12,1.48%
12,C/C(=N/NC(=O)CSCc1ccc(Cl)cc1)c1cccc(NC(=O)c2ccccc2)c1,4.75%
13,Cc1sc(-n2c(C)cc(/C=C3\SC(=S)NC3=O)c2C)c(C#N)c1C,8.41%
14,COc1cc(CN(C(=O)c2ccco2)c2ccc(C)cc2)ccc1O,-12.1%
15,COc1ccc(-c2[nH]ncc2N=Nc2cc(C)cc(C)c2)cc1,24.5%
16,COCCNC(=O)Cn1c(=O)n(Cc2ccc(C(=O)NCCc3ccc(OC)c(OC)c3)cc2)c(=O)c2ccccc21,11.7%
17,CC(=O)Nc1nnc(-c2ccc3c(c2)CCCC3)o1,-23.3%
18,Cc1cccc(N2CCN(C(=O)C3CCN(S(=O)(=O)c4cnc[nH]4)CC3)CC2)c1C,4.44%
19,CC(=Nc1ccccc1)C1=C(O)COC1=O,-3.16%
20,COc1ccc(C=O)cc1OC1C=CCCC1 (stereo not drawn),11.5%
21,Cc1nc(-c2ccccc2)sc1C1(C)CC(c2ccc(OC(F)(F)F)cc2)=NO1 (stereo not drawn),4.29%
22,O=C(O)CCn1ncc2ccccc2c1=O,-1.22%
